About 2,200 (0.71%) of roughly 310,000 compounds showed an effect of 50% or more. The effect is printed as a negative number. This is one part of the list.

Chain of human ether-à-go-go-related gene (hERG) potassium channel (Q12809 whole entry, looked up): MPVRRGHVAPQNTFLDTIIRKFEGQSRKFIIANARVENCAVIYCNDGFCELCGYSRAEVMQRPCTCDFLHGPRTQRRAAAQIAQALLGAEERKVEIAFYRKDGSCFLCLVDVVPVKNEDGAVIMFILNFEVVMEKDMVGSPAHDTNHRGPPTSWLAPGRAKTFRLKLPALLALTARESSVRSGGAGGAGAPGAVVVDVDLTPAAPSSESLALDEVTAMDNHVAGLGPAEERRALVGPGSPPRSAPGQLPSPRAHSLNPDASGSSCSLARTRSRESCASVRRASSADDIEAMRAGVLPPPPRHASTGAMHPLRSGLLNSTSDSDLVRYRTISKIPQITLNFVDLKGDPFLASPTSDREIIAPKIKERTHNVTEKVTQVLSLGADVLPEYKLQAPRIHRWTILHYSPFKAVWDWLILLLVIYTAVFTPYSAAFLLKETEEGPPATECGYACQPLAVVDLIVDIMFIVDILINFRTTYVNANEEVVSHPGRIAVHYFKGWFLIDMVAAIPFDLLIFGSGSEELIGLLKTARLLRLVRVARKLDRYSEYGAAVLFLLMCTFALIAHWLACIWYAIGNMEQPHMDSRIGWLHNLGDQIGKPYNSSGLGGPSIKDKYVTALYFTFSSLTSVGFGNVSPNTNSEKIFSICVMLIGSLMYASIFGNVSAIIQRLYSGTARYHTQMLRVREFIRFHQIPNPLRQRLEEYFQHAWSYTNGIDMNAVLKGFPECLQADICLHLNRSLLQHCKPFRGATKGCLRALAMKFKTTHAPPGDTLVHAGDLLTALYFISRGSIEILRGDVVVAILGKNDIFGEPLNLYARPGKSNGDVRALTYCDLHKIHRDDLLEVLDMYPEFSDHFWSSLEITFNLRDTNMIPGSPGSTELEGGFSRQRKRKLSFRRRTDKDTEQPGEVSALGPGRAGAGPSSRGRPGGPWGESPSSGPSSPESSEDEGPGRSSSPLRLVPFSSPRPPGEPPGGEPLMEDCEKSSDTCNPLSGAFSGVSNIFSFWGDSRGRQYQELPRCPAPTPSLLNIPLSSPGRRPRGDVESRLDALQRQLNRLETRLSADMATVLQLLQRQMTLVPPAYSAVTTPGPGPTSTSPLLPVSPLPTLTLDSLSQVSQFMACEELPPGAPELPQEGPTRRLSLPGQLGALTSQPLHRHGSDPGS

This experiment addresses human ether-à-go-go-related gene (hERG) potassium channel (human, UniProt Q12809). As to the kind of experiment: primary screen, population patch clamp on CHO cells stably expressing hERG.
Take `Nc1cc(=O)[nH]c(SCC(=O)Nc2ccc(F)c(Cl)c2)n1`: the “hERG current change (%, negative = inhibition) at 1uM” value was 13.2%.

For the molecule `CC(C)(C)NC(=O)CSc1nc(N)c(NC(=O)c2ccccc2F)c(=O)[nH]1`, the “hERG current change (%, negative = inhibition) at 1uM” value is on record as 17.2%.

Regarding `CC1CCCCC1NC(=O)CSc1nc2ccccc2[nH]1` (centres unmarked), the “hERG current change (%, negative = inhibition) at 1uM” value turned out to be 12%.

As for `COc1cc2c(cc1NC(=O)C(c1ccccc1)c1ccccc1)CCCC2`, the “hERG current change (%, negative = inhibition) at 1uM” value was determined as 8.77%.

With `CC(=O)NS(=O)(=O)c1cccnc1Nc1ccc(Cl)c(Cl)c1`, the “hERG current change (%, negative = inhibition) at 1uM” value is 13.1%.

`O=C(N/N=C/C=C/c1ccccc1[N+](=O)[O-])c1cccnc1`: the “hERG current change (%, negative = inhibition) at 1uM” value was determined as 2.94%.

Take `Cc1ccc(C)c(S(=O)(=O)N/N=C/c2ccc(N(C)C)cc2)c1`: the “hERG current change (%, negative = inhibition) at 1uM” value turned out to be 17.4%.

For the molecule `Cc1nn(C)c(C)c1CNC(=O)c1nn2c(c1Cl)NC(c1cccs1)CC2C(F)(F)F` (centres unmarked), the “hERG current change (%, negative = inhibition) at 1uM” value was determined as 7.05%.

On to `Cc1ccc(NC(=O)CS(=O)CC(=O)Nc2ccc(N3CCOCC3)cc2)cc1Cl` (centres unmarked), for which the “hERG current change (%, negative = inhibition) at 1uM” value is 9.05%.

For the molecule `CC1Cc2ccccc2N1C(=O)CN1C(=O)NC2(CCCCC2)C1=O` (centres unmarked), the “hERG current change (%, negative = inhibition) at 1uM” value is given as 17.9%.

With `Cc1ccc(C2=C(CC(=O)O)C(=O)CC2)cc1`, the “hERG current change (%, negative = inhibition) at 1uM” value was 14.1%.

For the molecule `C/C(=N/Nc1ccccc1[N+](=O)[O-])c1ccc([N+](=O)[O-])cc1`, the “hERG current change (%, negative = inhibition) at 1uM” value stood at 12.4%.

`Cc1nc2nc[nH]n2c(=O)c1NC(=O)c1c(-c2ccccc2Cl)noc1C`: the “hERG current change (%, negative = inhibition) at 1uM” value was found to be 8.11%.

Take `O=S1(=O)N=C2CCCCCN2C(c2ccncc2)N1` (centres unmarked): the “hERG current change (%, negative = inhibition) at 1uM” value is -0.59%.

For the molecule `CCOC(=O)Cn1c2c(c(=N)c3ccccc31)CCC2.Cl`, the “hERG current change (%, negative = inhibition) at 1uM” value came out at 12.7%.

Turning to `COc1ccc(CCNC(=O)COC(=O)/C=C/c2cccs2)cc1OC`, the “hERG current change (%, negative = inhibition) at 1uM” value amounted to 11.7%.

Consider `Cc1ccc(C(=O)Nc2nc3ccc(S(C)(=O)=O)cc3s2)cc1C`, for which the “hERG current change (%, negative = inhibition) at 1uM” value is 10.9%.

Regarding `CCOc1cc(/C=N/NC(=O)C(=O)NCCCOC(C)C)cc(Br)c1O`, the “hERG current change (%, negative = inhibition) at 1uM” value was determined as 13.4%.

Take `Cc1cc(S(=O)(=O)N2CCOCC2)ccc1OCC(=O)Nc1ccc(F)cc1F`: the “hERG current change (%, negative = inhibition) at 1uM” value is reported as 12.3%.

Consider `COc1cc(CNC(C)C)c(Br)cc1OC1CCCC1.Cl`, for which the “hERG current change (%, negative = inhibition) at 1uM” value worked out at 7.89%.

Take `COC(=O)C/C=C/[C@@H](C)[C@@H](/C=N/OC[C@@H](C)[C@H](OCc1ccccc1)C(C)C)NS(=O)(=O)c1ccc(C)cc1`: the “hERG current change (%, negative = inhibition) at 1uM” value came out at 8.39%.

As for `CC(C)NC(=O)c1onc(CSc2ccncc2)c1C(=O)NC(C)C`, the “hERG current change (%, negative = inhibition) at 1uM” value is reported as 10.7%.

As for `O=C(NCc1ccc(F)cc1)C(c1ccco1)N(C(=O)c1csnn1)c1ccccc1` (centres unmarked), the “hERG current change (%, negative = inhibition) at 1uM” value is listed as 3.49%.

Take `CCC(=O)Nc1nnc(SCC(=O)c2ccc3c(c2)Cc2ccccc2-3)s1`: the “hERG current change (%, negative = inhibition) at 1uM” value came to 9.92%.

Take `CC(C)c1ccc(NC2CCCN(C(=O)c3ccnn3C)C2)cc1` (centres unmarked): the “hERG current change (%, negative = inhibition) at 1uM” value is 8%.

As for `COc1cccc(N2CCN(Cc3nc4ccccc4c(=O)[nH]3)CC2)c1`, the “hERG current change (%, negative = inhibition) at 1uM” value amounted to 3.68%.

Turning to `CN(C)S(=O)(=O)c1ccc(Cl)c(NC(=O)COC(=O)c2ccc3c(c2)NC(=O)CS3)c1`, the “hERG current change (%, negative = inhibition) at 1uM” value is 9.27%.

Consider `Cc1ccccc1N1CCN(C(=S)c2ccc(-c3ccc([N+](=O)[O-])cc3)o2)CC1`, for which the “hERG current change (%, negative = inhibition) at 1uM” value is listed as 15.9%.

In the case of `CCC(C)NC(=O)c1cc(-c2cccs2)nc2ccccc12` (centres unmarked), the “hERG current change (%, negative = inhibition) at 1uM” value came to 18.8%.

For `CCC(C)(NC(=O)c1cccc(N2C(=O)CSC2c2ccccc2)c1)C(=O)Nc1ccccc1C` (centres unmarked), the “hERG current change (%, negative = inhibition) at 1uM” value was determined as 10.4%.

With `COc1cc(OC)cc(-c2c(-c3cccs3)c3cc(-c4cccc5[nH]ccc45)ccc3n2C)c1`, the “hERG current change (%, negative = inhibition) at 1uM” value amounted to 17.3%.

As for `Cc1nnc(SCC(=O)NNC(=O)CC#N)[nH]c1=O`, the “hERG current change (%, negative = inhibition) at 1uM” value is on record as 2.44%.

`Cc1cc2occ(CC(=O)NC3(C)CCS(=O)(=O)C3)c2cc1C` (centres unmarked): the “hERG current change (%, negative = inhibition) at 1uM” value is on record as 0.741%.

`COC(=O)c1ccc(-n2cnc(Cl)n2)c(F)c1`: the “hERG current change (%, negative = inhibition) at 1uM” value is 3.18%.

For the molecule `CCCCNC(=O)CC(=O)Nc1ccccc1C(=O)O`, the “hERG current change (%, negative = inhibition) at 1uM” value is listed as 8.21%.

In the case of `Cn1c(NC(=O)C2c3ccccc3Oc3ccccc32)cc(=O)n(C)c1=O`, the “hERG current change (%, negative = inhibition) at 1uM” value was 8.56%.

As for `O=c1cc(NCc2ccccc2)nc2ccccn12`, the “hERG current change (%, negative = inhibition) at 1uM” value was 14.2%.

On to `COc1ccc(C(C)(C)C)cc1S(=O)(=O)N1CCC(C(N)=O)CC1`, for which the “hERG current change (%, negative = inhibition) at 1uM” value is recorded as 16.9%.

Turning to `CCOc1cccc(CNCc2cccnc2)c1OCc1ccccc1.Cl`, the “hERG current change (%, negative = inhibition) at 1uM” value was -0.955%.

With `CCN1C(=O)N(C)[C@@H](c2ccccc2)C(C(=O)OC)=C1C`, the “hERG current change (%, negative = inhibition) at 1uM” value turned out to be 4.86%.

As to `Cc1nc(=O)c(-c2ccccc2)c(C)n1-c1ccccc1O`, the “hERG current change (%, negative = inhibition) at 1uM” value amounted to 15.1%.

For `CCC(c1nnnn1C1CCCCC1)N1CCN(C(=O)c2ccco2)CC1.Cl` (centres unmarked), the “hERG current change (%, negative = inhibition) at 1uM” value was found to be 13%.

As to `CCSc1nnc([C@@H](NC(=O)OC(C)(C)C)C(C)C)o1`, the “hERG current change (%, negative = inhibition) at 1uM” value turned out to be 9.61%.

Regarding `Cc1ccccc1OCc1nc2c3cnn(C)c3ncn2n1`, the “hERG current change (%, negative = inhibition) at 1uM” value is given as 13.7%.

(Values after publication PMC4336329 (PLoS ONE, 2015).)
